Results from the RNAGym collection of RNA variant scans (doi:10.1093/nar/gkz1192).
Read counts are not given, so values of variants with three or more changes are uncertain.

B1: CPEB3 Ribozyme (parent)
chain: UAACAGGGGGCCACAGCAGAAGCGUUCACGUCGCAGCCCCUGUCAGAUUCUGGUGAAUCUGCGAAUUCUGCUGUAUAUCUC

Variants of: B1
Assay: self-cleavage, relative activity (ratio to wild type); higher = more cleavage; in vitro, sequencing
Procedure, shortened: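 CPEB3 self-cleaving ribozyme mutant libraries were made by rounds of error-prone PCR, barcoded, and transcribed in vitro with T7 RNA polymerase for 5 hours at 37°C. Cleavage occurred during transcription and a 15 min DNase I step before EDTA stop. RNAs were reverse transcribed with template switching and Illumina-sequenced, with DNA sequencing mapping barcodes to variants. Relative activity is the variant's cleaved/total read fraction divided by wild type's (minimum 5 reads), averaged across three batches.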
For UAACAGGGGACCACAGCAGAAGCGUUCACGUCGCUGCCCCUGUCAGAUUCUGGUGAGUCUGCGAAUUCUGCUGUAUAUCUC [G10A A35U A57G], the self-cleavage was 0.27. For UAACAGGGGACCACAGCAGAAGCGUUCACGUCGCUGCCCCUGUCAGAUUCUGGUGAGUCUGCCAGUUCUGCUGUAUAUCUC [G10A A35U A57G G63C A65G], the self-cleavage was 0.13. Variant UAACAGGGGACCACAGCAGAAGCGUUCACGUCGCUGCCCCUGUCAGAUUCUAGUGAAUCUGCGAAUUCUGCUGUAUAUCUC [G10A A35U G52A] has a self-cleavage of 0.1. In the case of UAACAGGGGACCACAGCAGAAGCGUUCACGUCGCUGCCCCUGACAGAUUCUGGUGAAUCUGCGAAUUCUGCUGUAUAUCUC [G10A A35U U43A], the self-cleavage is reported as 0.05. For UAACAGGGGACCACAGCAGAAGCGUUCACGUCGCUGCCCCUGUCAGACUCUGGUGAAUCUGCGAAUUCUGCUGUAUAUCCC [G10A A35U U48C U80C], the self-cleavage was 0.19. UAACAGGGGACCACAGCAGAAGCGUUCACGUCGCAGCCCCUGUCGGAUUCUGGUGAAUCUGCGAAUUAUGCUGUAUAUCUC [G10A A45G C68A] gave a self-cleavage of 0.07. UAACAGGGGACCACAGCAGAAGCGUUCACGUCGCAGCCCCUGUCGGAUUCUGGUGAAUCUGCGAACUCCGCUGUAUAUCUC [G10A A45G U66C U69C] showed a self-cleavage of 0.19. UAACAGGGGACCACAGCAGAAGCGUUCACGUCGCAGCCCCUGUCGGAUUCUGGUGAAUCUGCGAAUUCUGCUGUAUAUCCC [G10A A45G U80C] showed a self-cleavage of 0.06. Variant UAACAGGGGACCACAGCAGAAGCGUUCACGUCGCAGCCCCUGUCUGAUUCUGGUGUAUCUGCGAAUUCUGCUGUAUAUCUC [G10A A45U A56U] has a self-cleavage of 0.12. UAACAGGGGACCACAGCAGAAGCGUUCACGUCGCAGCCCCUGUCUGAUUCUGGUGAAUCAGCGUAUUCAGCUGUAUAUCUC [G10A A45U U60A A64U U69A] gave a self-cleavage of 0.08. Variant UAACAGGGGACCACAGCAGAAGCGUUCACGUCGCAGCCCCUGUCUGAUUCUGGUGAAUCUGCGAAUUCCGCUGUAUAUCUC [G10A A45U U69C] has a self-cleavage of 0.06. With UAACAGGGGACCACAGCAGAAGCGUUCACGUCGCAGCCCCUGUCAGCUUCUGGUGAAUCUGCGAAUUCUGCUGUAUAUCCC [G10A A47C U80C] the self-cleavage was 0.33. UAACAGGGGACCACAGCAGAAGCGUUCACGUCGCAGCCCCUGUCAGGUUCUGGCGAAUCUGCGAAUUCUGCUGUAUAUCUC [G10A A47G U54C] showed a self-cleavage of 0.31. In the case of UAACAGGGGACCACAGCAGAAGCGUUCACGUCGCAGCCCCUGUCAGAUUCUGGUGGAUCUGCGAGUUCUGCUGUAUAUCCC [G10A A56G A65G U80C], the self-cleavage is reported as 0.17. UAACAGGGGACCACAGCAGAAGCGUUCACGUCGCAGCCCCUGUCAGAUUCUGGUGAGUCUGCGAGAUCUGCUGUAUAUCUC [G10A A57G A65G U66A] gave a self-cleavage of 0.3. UAACAGGGGACCACAGCAGAAGCGUUCACGUCGCAGCCCCUGUCAGAUUCUGGUGAAUCUGCGGACUCUGCUGUAUAUCUC [G10A A64G U66C] gave a self-cleavage of 0.17. Work on UAACAGGGGACCACAGCAGAAGCGUUCACGUCGCAGCCCCUGUCAGAUUCUGGUGAAUCUGCGGACUCUGCCGUGUAUCAC [G10A A64G U66C U72C A75G U80A] yielded a self-cleavage of 0.04. With UAACAGGGGACCACAGCAGAAGCGUUCACGUCGCAGCCCCUGUCAGAUUCUGGUGAAUCUGCGUAUUCUGCCGUAUAUCUC [G10A A64U U72C] the self-cleavage was 0.2. With UAACAGGGGACCACAGCAGAAGCGUUCACGUCGCAGCCCCUGUCAGAUUCUGGUGAAUCUGCGACUUCUGCUGCAUAUCUC [G10A A65C U74C] the self-cleavage was 0.14. For UAACAGGGGACCACAGCAGAAGCGUUCACGUCGCAGCCCCUGUCAGAUUCUGGUGAAUCUGCGAGUUCAGCUGUAUAUCUC [G10A A65G U69A], the self-cleavage was 0.04. UAACAGGGGAACUCAGCAGAGGCGUUCACGUCGCAGCCCCUGUAAGACUCUUGUGAAUCUGCGAAUUCUGCUGUAUAUCUC [G10A C11A A13U A21G C44A U48C G52U] showed a self-cleavage of 0.04. Work on UAACAGGGGAGCACAGCAGAAGCGUUCACGUCGCAGCCCCUGUCAGAUUAUGGUGAAUCUGCGAAUUCUGCUGUAUAUCAC [G10A C11G C50A U80A] yielded a self-cleavage of 0.41. With UAACAGGGGAUCACAGCAGGAGCGUUCACGUCGCAGCCCCUGUCAGAUUCUGGUGAAUCUGCGAAUUCUGCUGUAUAUCUC [G10A C11U A20G] the self-cleavage was 0.05. Work on UAACAGGGGACAACAGCAGAAGCGUUCACGUCGCAGCCUCUGUCAGAUUCUGGCGAAUCUGCGAAUACUGCUGUAUAUCUC [G10A C12A C39U U54C U67A] yielded a self-cleavage of 0.05. Variant UAACAGGGGACAACAGCAGAAGCGUUCACGUCGCAGCCCCUGUCAGAUUCUGGUGAACCGGCGAAUUCUGCUGUGUAUCUC [G10A C12A U58C U60G A75G] has a self-cleavage of 0.03. For UAACAGGGGACGACAGCAGAAGCGUACACGUCGCAGCCCCUGUCAGAUUCUGGUGAAUCUGCGAAUUCCGCUGUUUAUCCC [G10A C12G U26A U69C A75U U80C], the self-cleavage was 0.01. In the case of UAACAGGGGACUACAGCAGAAGCGUUCGCGUCGCGGCCCGUGUCAGAUUCUGGUGAAUCUGUGAAUUCUGCUGUAUAUCUC [G10A C12U A28G A35G C40G C62U], the self-cleavage is reported as 0.04. Work on UAACAGGGGACUACAGCAGAAGCGUUCGCGUCGCAGCCCCUGUCAGAUUCUGGUGAAUCUGCGAAUGCUGCUGUAUAUCUC [G10A C12U A28G U67G] yielded a self-cleavage of 0.04. With UAACAGGGGACUACAGCAGAAGCGUUCACGCCGCAGCCCCUGUCAGAUUCUGGUGAAUCUGCGAAUCCUGCUGUAUAUCUC [G10A C12U U31C U67C] the self-cleavage was 0.06. Work on UAACAGGGGACCAAAGCAGAAGCGUUCACGUCGCAGCCCCUGUCAGAUUCUGGUGAAUCAGCGAAUUCUGCUGUAUAUCUC [G10A C14A U60A] yielded a self-cleavage of 0.18. In the case of UAACAGGGGACCAUAGCAGAAGCGUUCACGUCGCAGCCCCUGUAAGAUUCUGGUGAAUCUGCGAAUUCUGCUGUAUGUCCC [G10A C14U C44A A77G U80C], the self-cleavage is reported as 0.05. In the case of UAACAGGGGACCACAGGAGAAGCGUUCACGUCGCAGCCCCUGUCAGAUUCUGGUGAAUCUGCGAACUCUGCUGUAUAUCUC [G10A C17G U66C], the self-cleavage is reported as 0.2. With UAACAGGGGACCACAGCAGAAGAGUCCACGUCGCAGCCCCUGUCAGAUUCUGGUGAAUCUGCGAAUUCUGCUGUAUAUCCC [G10A C23A U26C U80C] the self-cleavage was 0.26. Variant UAACAGGGGACCACAGCAGAAGGGUUCACGUCGCAGCCCCUGUCAAAUUCUGGUGAAUCUGCGAAUUCUGCUGUAUAUCUC [G10A C23G G46A] has a self-cleavage of 0.04.
